We go through 34 compounds from publication PMC9574860, “Chemical Toolkit for PARK7: Potent, Selective, and High-Throughput” (Journal of Medicinal Chemistry, 2022).

Out of some 7,900 compounds screened, about 400 (5.1%) showed an effect of 50% or more. The list shows a part of the results.

Sequence of Parkinson's disease protein 7 (PARK7/DJ1) (Q99497 whole entry, looked up, the tested form may be a part): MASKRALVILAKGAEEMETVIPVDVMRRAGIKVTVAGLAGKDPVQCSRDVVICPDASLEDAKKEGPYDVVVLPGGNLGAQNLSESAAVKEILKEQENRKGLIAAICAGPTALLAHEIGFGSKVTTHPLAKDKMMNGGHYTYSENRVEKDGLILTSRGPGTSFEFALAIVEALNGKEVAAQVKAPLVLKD

The assay deals with Parkinson's disease protein 7 (PARK7/DJ1) (human, UniProt Q99497). Put plainly: primary screen, percent inhibition; read as competition with a fluorescent probe by fluorescence polarization; higher = more effect of the substance. The settings on record: 100 µM. The procedure, abridged:
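Fluorescence-polarization probe displacement (JYQ-107, 20 nM final, 2 h) after 2 h preincubation of PARK7 (0.2 μM final) with each fragment at 100 μM final. Read-out ex/em 480/520 nm; remaining activity derived from FP signal loss relative to reference controls.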
Regarding `O=C(CCl)Nc1ccccc1O`, the Inhibition % is on record as 21.3%.
For `N#Cc1c(N2CCCC(C(F)(F)F)C2)nc2ccccn12` (stereo not shown) the value was -0.359%; for `O=c1onc(-c2ncccn2)n1Cc1ccccc1F`, 1.26%; for `CN(CCS(=O)(=O)F)S(=O)(=O)c1ccc(F)cc1`, 11%.
With `N#Cc1cnc2ccccc2n1`, the Inhibition % came to 8.61%.
For `CCc1nc(C)cn1S(=O)(=O)c1ccc(C(C)C)cc1` the value was 12.7%; for `O=C(c1cc(S(=O)(=O)F)c[nH]1)N1CCN(C(=O)c2ccn[nH]2)CC1`, 6.64%.
Turning to `CCC1(O)CCN(C(=O)c2ccc(B(O)O)c(F)c2)CC1`, the Inhibition % is on record as 7.89%.
For `O=C(CCl)N(C1CCCCC1)C1CCS(=O)(=O)C1` (stereo not shown), the Inhibition % stood at 1.27%.
For `C=CC(=O)NC1CCOC1(C)C` (stereo not shown) the value was -0.151%; for `Cc1cccc(C2=NC(=Cc3cnn(C)c3)C(=O)O2)c1`, 2.85%; for `COc1ccc(C(=O)CCl)cc1Cl`, 95.9%.
In the case of `Nc1cccc(OC2CC(=O)N2)c1` (stereo not shown) it was 18.6%.
In the case of `C=CC(=O)N1CC2(CCC2)C2COCC21` (stereo not shown) it was 14.3%.
Take `Cc1nsc(N2CCC(C3NC(=O)C3(C)C)CC2)n1` (stereo not shown): the Inhibition % is reported as -0.128%.
For `C=CC(=O)NC1CC(OCC)C12CCCCC2` (stereo not shown) the value was 4.59%; for `CC1(C)OB(c2ccc(F)c(OC(F)F)c2)OC1(C)C`, 7.71%.
For `Cc1n[nH]c(C)c1CNC(=O)c1cccnc1S` the value was 7.62%.
Consider `C=CC(=O)N1CC(C2CCOC2)C1` (stereo not shown), for which the Inhibition % was 8.11%.
Regarding `O=C(CCl)N1c2ccccc2NC(=O)C12CCCC2`, the Inhibition % came out at 42.3%.
For `N#Cc1ccn2ncc(C(=O)O)c2c1` the value was 13.4%; for `O=S(=O)(F)CCS(=O)(=O)c1ccc(Cl)cc1`, 4.77%; for `Cc1nc(CCN2C(=O)SC(C)(C)C2=O)cs1`, 17.3%.
In the case of `CN(C)Cc1nc(S)c2ccccc2n1` it was 0.786%; in that of `N#Cc1ncccc1N1CCCC1CF` (stereo not shown), -3.5%; in that of `C=CC(=O)NCC(=O)NCC1(C#N)CC1`, 4%.
In the case of `COc1ccc(CN(C(=O)CCl)C2CC2)cc1` it was 15.6%.
Consider `Cc1ccc(NC(=O)NC(=O)CCl)c(C)c1`, for which the Inhibition % is recorded as 2.37%.
On to `C=CC(=O)N1CCCC1C(=O)Nc1nc2ccccc2s1` (stereo not shown), for which the Inhibition % is reported as 43.9%.
In the case of `O=C(CN1CCSC1=O)N1CCCCC1` it was 7.42%; in that of `COc1ccc(Cl)cc1S(=O)(=O)n1cnc(C)c1`, 5.84%.
As to `O=C1CCN1c1ccccc1`, the Inhibition % was found to be 5.28%.
Turning to `COC(=O)c1cc([N+](=O)[O-])cc(B2OC(C)(C)C(C)(C)O2)c1C`, the Inhibition % worked out at 12.9%.
As to `C=CC(=O)N1CCOC[C@@H]1CC(C)C`, the Inhibition % amounted to 6.89%.
